In all, about 310,000 compounds went through this assay and about 14,000 (4.5%) showed an effect of 50% or more. Effects have a minus sign here. The list shows a part of the results.
Target: human ether-à-go-go-related gene (hERG) potassium channel (human, UniProt Q12809)
Assay: primary screen, population patch clamp on CHO cells stably expressing hERG
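Note: peak tail current of the secondary pulse compared with the same well before compound.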

Chain of human ether-à-go-go-related gene (hERG) potassium channel (Q12809 whole entry, looked up): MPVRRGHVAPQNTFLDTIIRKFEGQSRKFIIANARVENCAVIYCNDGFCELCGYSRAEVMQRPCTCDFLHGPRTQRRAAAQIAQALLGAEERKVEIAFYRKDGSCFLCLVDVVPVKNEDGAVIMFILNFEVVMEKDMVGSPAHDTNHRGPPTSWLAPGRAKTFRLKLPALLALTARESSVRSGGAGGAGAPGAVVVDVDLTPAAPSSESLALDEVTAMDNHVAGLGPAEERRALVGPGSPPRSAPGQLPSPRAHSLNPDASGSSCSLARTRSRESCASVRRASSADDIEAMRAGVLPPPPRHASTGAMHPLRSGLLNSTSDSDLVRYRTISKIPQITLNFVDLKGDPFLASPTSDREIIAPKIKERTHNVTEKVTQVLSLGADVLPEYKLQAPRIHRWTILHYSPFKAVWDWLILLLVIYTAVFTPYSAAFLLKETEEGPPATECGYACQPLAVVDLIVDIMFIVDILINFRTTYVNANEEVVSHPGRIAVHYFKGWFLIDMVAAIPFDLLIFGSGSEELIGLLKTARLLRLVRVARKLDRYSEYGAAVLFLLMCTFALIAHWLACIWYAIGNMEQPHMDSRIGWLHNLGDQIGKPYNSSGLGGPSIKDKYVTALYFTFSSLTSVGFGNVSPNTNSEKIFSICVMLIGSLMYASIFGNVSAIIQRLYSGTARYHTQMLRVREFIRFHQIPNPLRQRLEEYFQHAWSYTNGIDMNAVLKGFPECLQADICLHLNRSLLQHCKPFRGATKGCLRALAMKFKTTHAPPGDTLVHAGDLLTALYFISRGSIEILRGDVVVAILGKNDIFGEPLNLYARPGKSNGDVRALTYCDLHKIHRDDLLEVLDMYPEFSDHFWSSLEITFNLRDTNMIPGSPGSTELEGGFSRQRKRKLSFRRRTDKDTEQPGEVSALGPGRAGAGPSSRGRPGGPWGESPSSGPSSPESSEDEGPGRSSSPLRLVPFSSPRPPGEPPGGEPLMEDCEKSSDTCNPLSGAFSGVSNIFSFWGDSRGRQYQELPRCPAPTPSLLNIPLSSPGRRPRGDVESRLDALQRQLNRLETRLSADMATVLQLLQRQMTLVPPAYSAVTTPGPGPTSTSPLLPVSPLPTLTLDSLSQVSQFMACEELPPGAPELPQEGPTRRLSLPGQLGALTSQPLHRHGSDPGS

Compound	hERG current change (%, negative = inhibition) at 10uM [%]
O=C(O)CC(c1ccccc1)c1ccccc1	-33.8
O=C(O)CCSc1nnc(COc2cccc3ccccc23)n1-c1cccc(Cl)c1	22.5
Cc1ccc(NC(=S)NCc2ccc3[nH]c4c(c3c2)CCCC4)cc1	-1.45
CN(CC(=O)NCC1CCCCC1)S(=O)(=O)c1ccc(Cl)cc1	8.46
O=C(COC(=O)c1cccs1)NC1CCCCC1	2.51
Cc1ccc(OCC(=O)N/N=C\c2ccncc2)c(C)c1	-33.6
CC(CC(=O)Nc1nccs1)c1ccccc1 (stereo not shown)	15
Cc1cccc(NC(=O)C2CCN(S(=O)(=O)c3cccc4nsnc34)CC2)n1	-2.82
Cc1cc(C(=O)OCC(=O)Nc2cc(S(=O)(=O)N(C)C)ccc2Cl)c2ccccc2n1	-2.06
CC1CCCCN1C(=S)NC(=O)c1cc(Br)ccc1Cl (stereo not shown)	4.09
CCOC(=O)/C(=N\Nc1ccccc1)N1CC1	34.3
CCCCCN(C(=O)CCC(=O)OCC(=O)N1C(C)CCCC1C)c1c(N)n(CCCC)c(=O)[nH]c1=O (stereo not shown)	12.9
CC(=O)c1ccc(N=Nc2c(C)[nH]n(-c3ccccc3)c2=O)cc1	8.59
c1ccc(CSc2nnc(-c3ccncc3)o2)cc1	-21.6
O=C(Nc1sc2c(c1C(=O)c1ccc(Cl)cc1)CCCC2)c1cccnc1	6.14
CCOC(=O)C1(Cc2cccc(Cl)c2)CCCN(CCO)C1 (stereo not shown)	2.16
CN(C(=O)c1ccc(NC(=O)Cc2ccc(NC(=O)C3CCCN(C(=O)C4CCC4)C3)cc2)cc1)C1CC1 (stereo not shown)	7.5
CC1=CS(=O)(=O)CC1SC1=NC(C)=N[NH2+]1.[Br-] (stereo not shown)	12.3
CC1CCCN(S(=O)(=O)c2ccc(S(=O)(=O)NC(C)c3cccs3)cc2)C1 (stereo not shown)	-14
O=C(COc1ccc(S(=O)(=O)N2CCCCC2)cc1)NCc1ccncc1	-26
COc1ccc(-n2c(CNc3ccc(C)cc3)nnc2SCC(=O)Nc2nc(-c3ccccc3)cs2)cc1	-23.1
Cc1ccc(/C=N/N=C2/NC(=O)CS2)o1	24.6

Compound	hERG current change (%, negative = inhibition) at 10uM [%]
CCOC(=O)C1CCN(C(=S)Nc2cccc(C)c2C)CC1	-7
O=[N+]([O-])c1ccc(Cl)cc1Sc1nc2ccccc2o1	-1.77
Cc1cc(Cl)ccc1OCC(=O)NCC(c1cccs1)N1CCOCC1 (stereo not shown)	-4.97
CN1CCN(c2ccc(NC(=O)c3cc4ccccc4o3)cc2)CC1	-72.3
O=C(NCc1cccs1)C1CCCN1C(=O)Nc1ccccc1[N+](=O)[O-] (stereo not shown)	-21.3
Cc1ccc(NC2=CC(=O)CC(C)(C)C2)cc1F	6.87
O=C(O)CN1C(=O)SC(Nc2ccc(C(=O)O)cc2)C1=O (stereo not shown)	4.35
Cn1c(CC(=O)Nc2ccc(Cl)c(Cl)c2)nnc1SCC(=O)N1CCN(c2ccccc2)CC1	-33
CCN(CC(=O)Nc1c(F)cccc1F)C(=O)c1ccc(C(=O)c2ccccc2)cc1	-18.1
COCCN(C(=O)COC(=O)/C=C/c1ccc(C(F)(F)F)cc1)c1c(N)n(Cc2ccccc2)c(=O)[nH]c1=O	-11.4
Oc1ccc(Cl)cc1C=Nc1ccccc1Br	11.8
CCOc1ccccc1NC(=O)N1CCCC(c2nc3c(nnn3Cc3ccc(C)cc3)c(=O)[nH]2)C1 (stereo not shown)	-22.7
CC1CC(C)CN(C(=O)COC(=O)Cc2c[nH]c3ccccc23)C1 (stereo not shown)	6.66
CS(=O)(=O)N(CC(N)=O)c1ccc2c(c1)OCO2	15.7
O=C(Cc1cccs1)N(Cc1cccs1)C1(C(=O)NC2CCCC2)CCCCC1	0.498
COc1ccc(/C=N/Nc2cc(=O)n(C)c(=O)n2C)cc1OC	17
Cc1csc(=Nc2c(C)n(C)n(-c3ccccc3)c2=O)n1-c1ccccc1	18.1
O=C(CN1CCN(C(=O)c2ccccc2)CC1)Nc1ccccc1	-20.1
O=C(c1cccs1)N(Cc1ccc(Cl)cc1)C1CCS(=O)(=O)C1 (stereo not shown)	-41.9
CC(=O)NC(CC(=O)N(C)Cc1cccc(Cl)c1Cl)c1ccccc1 (stereo not shown)	-16.8
COc1ccc(N2CCN(C(=O)C3CCCN(S(=O)(=O)c4ccc(F)cc4)C3)CC2)cc1 (stereo not shown)	-39.2

From publication PMC4336329 (PLoS ONE, 2015)
